{"source": "the supplement of paper PMC4166925", "note": "± gives the standard deviation of the averaged measurements. Over roughly 33,000 sequences, “E-score (dimensionless, -0.5 to 0.5)” has its median near -0.049; the highest 2% begin near 0.37. The list shows a part of the results."}
{"test_system": "T1, PmTbr T-box DNA-binding domain (GST fusion)", "T1 sequence": "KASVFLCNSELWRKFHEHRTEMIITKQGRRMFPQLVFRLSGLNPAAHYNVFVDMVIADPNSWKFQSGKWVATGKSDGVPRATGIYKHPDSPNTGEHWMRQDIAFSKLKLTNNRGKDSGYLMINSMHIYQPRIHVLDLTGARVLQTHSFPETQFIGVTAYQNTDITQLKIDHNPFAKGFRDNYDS", "assay": "PBM E-score of 8-mer (E-score (dimensionless, -0.5 to 0.5)); Tbr is Tbrain of the sea star Patiria miniata (Pm) or the sea urchin Strongylocentrotus purpuratus (Sp); higher = stronger binding preference; most listed sequences are background and not binding sites", "settings": "the construct has about 5 more residues each side", "outline": "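Using the Universal PBM Analysis Suite, every ungapped 8-mer received an enrichment E-score averaged over duplicate arrays. Probe intensities came from double-stranded Universal Agilent oligonucleotide arrays incubated with 200 nM GST-fused Tbr T-box DNA-binding domain in PBS (pH 7.5). That protein was expressed in BL21 E. coli at 20 °C and purified by glutathione affinity chromatography.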"}
{"sequence": "CTTAAAGC", "PBM E-score of 8-mer": "-0.251 ± 0.07"}
{"sequence": "CCACTGGA", "PBM E-score of 8-mer": "-0.214 ± 0.023"}
{"sequence": "ATCCTGAG", "PBM E-score of 8-mer": "-0.118 ± 0.0029"}
{"sequence": "TAAAGGGA", "PBM E-score of 8-mer": "-0.131 ± 0.021"}
{"sequence": "AGATACGG", "PBM E-score of 8-mer": "-0.0614 ± 0.04"}
{"sequence": "AAGTCCGA", "PBM E-score of 8-mer": "-0.0578 ± 0.015"}
{"sequence": "GATATAGC", "PBM E-score of 8-mer": "0.0855 ± 0.025"}
{"sequence": "CAATCGAA", "PBM E-score of 8-mer": "-0.184 ± 0.0077"}
{"sequence": "CAAGCCCA", "PBM E-score of 8-mer": "-0.185 ± 0.1"}
{"sequence": "TAGAGGCA", "PBM E-score of 8-mer": "-0.155 ± 0.057"}
{"sequence": "GTTTCTCA", "PBM E-score of 8-mer": "0.225 ± 0.061"}
{"sequence": "AACTGGTG", "PBM E-score of 8-mer": "0.164 ± 0.041"}
{"sequence": "AAGCTGGA", "PBM E-score of 8-mer": "0.0394 ± 0.035"}
{"sequence": "CACCATCA", "PBM E-score of 8-mer": "0.224 ± 0.014"}
{"sequence": "ATCCAATG", "PBM E-score of 8-mer": "-0.144 ± 0.029"}
{"sequence": "CTCATGGA", "PBM E-score of 8-mer": "-0.25 ± 0.087"}
{"sequence": "GGGATGTA", "PBM E-score of 8-mer": "-0.0878 ± 0.0052"}
{"sequence": "AAGAGACC", "PBM E-score of 8-mer": "-0.2107 ± 0.0016"}
{"sequence": "GGGGAAAC", "PBM E-score of 8-mer": "-0.21 ± 0.03"}
{"sequence": "GTATTGAC", "PBM E-score of 8-mer": "-0.00293 ± 0.055"}
{"sequence": "ACGACCGA", "PBM E-score of 8-mer": "-0.05 ± 0.078"}
{"sequence": "GACACTCC", "PBM E-score of 8-mer": "0.336 ± 0.029"}
{"sequence": "CCAGGAGC", "PBM E-score of 8-mer": "-0.0936 ± 0.022"}
{"sequence": "AAGAGCCA", "PBM E-score of 8-mer": "-0.141 ± 0.043"}
{"sequence": "GACACATC", "PBM E-score of 8-mer": "0.372 ± 0.0069"}
{"sequence": "CCTTTTAA", "PBM E-score of 8-mer": "-0.0121 ± 0.037"}
{"sequence": "CTGCGATA", "PBM E-score of 8-mer": "0.169 ± 0.046"}
{"sequence": "CAAGCCGC", "PBM E-score of 8-mer": "0.0278 ± 0.004"}
{"sequence": "ATTGCATG", "PBM E-score of 8-mer": "-0.2595 ± 0.0022"}
{"sequence": "GCTTTGTA", "PBM E-score of 8-mer": "-0.27 ± 0.058"}
{"sequence": "CCCTGCCC", "PBM E-score of 8-mer": "-0.141 ± 0.066"}
{"sequence": "ACTTTGAG", "PBM E-score of 8-mer": "0.207 ± 0.011"}
{"sequence": "AGTAAATG", "PBM E-score of 8-mer": "-0.17 ± 0.012"}
{"sequence": "AACGATCC", "PBM E-score of 8-mer": "-0.103 ± 0.02"}
{"sequence": "ACGGTACA", "PBM E-score of 8-mer": "-0.149 ± 0.085"}
{"sequence": "CAGTCCTC", "PBM E-score of 8-mer": "-0.118 ± 0.032"}
{"sequence": "ATCCCGTC", "PBM E-score of 8-mer": "-0.18 ± 0.067"}
{"sequence": "AATGGTCG", "PBM E-score of 8-mer": "-0.249 ± 0.14"}
{"sequence": "AAGGGGGT", "PBM E-score of 8-mer": "0.113 ± 0.0083"}
{"sequence": "TCATGAGA", "PBM E-score of 8-mer": "-0.129 ± 0.02"}
{"sequence": "CAAAGGAG", "PBM E-score of 8-mer": "-0.205 ± 0.055"}
{"sequence": "CATGACGA", "PBM E-score of 8-mer": "-0.151 ± 0.0077"}
{"sequence": "ATAAAGAG", "PBM E-score of 8-mer": "-0.0745 ± 0.02"}
{"sequence": "AAACGTGT", "PBM E-score of 8-mer": "0.366 ± 0.013"}
{"sequence": "GACGGCCA", "PBM E-score of 8-mer": "0.00629 ± 0.033"}
{"sequence": "GCGCCGTA", "PBM E-score of 8-mer": "0.126 ± 0.099"}
{"sequence": "CACTGATG", "PBM E-score of 8-mer": "0.122 ± 0.0034"}
{"sequence": "ATAAGTCA", "PBM E-score of 8-mer": "-0.0907 ± 0.0094"}
{"sequence": "ACTTATAA", "PBM E-score of 8-mer": "0.0259 ± 0.035"}
{"sequence": "TCTGAGAA", "PBM E-score of 8-mer": "-0.135 ± 0.0068"}
{"sequence": "CAAGCCCG", "PBM E-score of 8-mer": "-0.148 ± 0.026"}
{"sequence": "ATCGCGAG", "PBM E-score of 8-mer": "0.249 ± 0.0038"}
{"sequence": "AGTAGCAG", "PBM E-score of 8-mer": "-0.0497 ± 0.024"}
{"sequence": "GAAGTTAC", "PBM E-score of 8-mer": "-0.0296 ± 0.068"}
{"sequence": "CCAATACA", "PBM E-score of 8-mer": "-0.093 ± 0.055"}
{"sequence": "GATTGTAC", "PBM E-score of 8-mer": "0.0159 ± 0.031"}
{"sequence": "ATCATTCG", "PBM E-score of 8-mer": "-0.107 ± 0.029"}
{"sequence": "TACCAGCA", "PBM E-score of 8-mer": "-0.0256 ± 0.03"}
{"sequence": "CACCATAA", "PBM E-score of 8-mer": "0.022 ± 0.028"}
{"sequence": "GGGAGCAC", "PBM E-score of 8-mer": "-0.22 ± 0.099"}
{"sequence": "GTATTTTA", "PBM E-score of 8-mer": "-0.18 ± 0.11"}
{"sequence": "ACCTGTGA", "PBM E-score of 8-mer": "0.4002 ± 0.002"}
{"sequence": "AGGTGTGG", "PBM E-score of 8-mer": "0.483 ± 0.0024"}
{"sequence": "GTCTAGGA", "PBM E-score of 8-mer": "-0.304 ± 0.01"}
{"sequence": "AGATGGCG", "PBM E-score of 8-mer": "0.007 ± 0.034"}
{"sequence": "ACCCCTCT", "PBM E-score of 8-mer": "-0.0694 ± 0.019"}
{"sequence": "AGCTAGAG", "PBM E-score of 8-mer": "-0.103 ± 0.061"}
{"sequence": "CGGCTTTC", "PBM E-score of 8-mer": "-0.0428 ± 0.074"}
{"sequence": "ACTCCTTC", "PBM E-score of 8-mer": "0.0419 ± 0.014"}
{"sequence": "ACCGTGTG", "PBM E-score of 8-mer": "0.218 ± 0.0082"}
{"sequence": "GAGGTCTA", "PBM E-score of 8-mer": "-0.328 ± 0.07"}
{"sequence": "CGCAATCC", "PBM E-score of 8-mer": "-0.0396 ± 0.086"}
{"sequence": "AATTACTC", "PBM E-score of 8-mer": "0.129 ± 0.0023"}
{"sequence": "GTTAGGCA", "PBM E-score of 8-mer": "-0.0852 ± 0.013"}
{"sequence": "ACTGTCAG", "PBM E-score of 8-mer": "0.129 ± 0.034"}
{"sequence": "CGTTGGCA", "PBM E-score of 8-mer": "0.287 ± 0.0039"}
{"sequence": "AACATCGT", "PBM E-score of 8-mer": "-0.127 ± 0.049"}
{"sequence": "CTAGAGAC", "PBM E-score of 8-mer": "-0.017 ± 0.029"}
{"sequence": "GACCTCTC", "PBM E-score of 8-mer": "-0.109 ± 0.026"}
{"sequence": "CTCGGAAG", "PBM E-score of 8-mer": "-0.178 ± 0.042"}
{"sequence": "AACTACCG", "PBM E-score of 8-mer": "-0.0172 ± 0.022"}
{"sequence": "GATAAACC", "PBM E-score of 8-mer": "-0.0666 ± 0.022"}
{"sequence": "GGGGTTGA", "PBM E-score of 8-mer": "-0.000915 ± 0.043"}
{"sequence": "ACATGTGC", "PBM E-score of 8-mer": "0.0476 ± 0.0078"}
{"sequence": "CGGGTCGA", "PBM E-score of 8-mer": "-0.018 ± 0.084"}
{"sequence": "AAAGGGTG", "PBM E-score of 8-mer": "0.259 ± 0.044"}
